# Reference: PubChem BioAssay AID1458 (National Center for Advancing Translational Sciences (NCATS), 2008)
# Screen size: about 210,000 compounds; about 5,900 (2.8%) were called active. Inconclusive results, whose numbers are uncertain, are shown with a selection of clear calls. The call rests on the fitted dose curve; in most records, active means well fitted activation curve with a large enough effect; inconclusive means small, poorly fitted or top-dose-only effect; inactive means no such curve, though single readings can be large or run the other way. Potencies beside an inconclusive call are fits to weak or partial responses and may not hold up.
# Assay: qHTS Assay for Enhancers of SMN2 Splice Variant Expression; further: nearly all actives have a fitted effect of over 55% in size; on activity change, positive = activation: % of control where 0% means no effect
# Details: HEK293 SMN2-luciferase splicing reporter, luminescence, 30-36 h; activity change, positive = activation: at 46.1 µM (top of the series)
# Procedure, shortened: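 qHTS luciferase splicing reporter: luminescence rises when SMN2 exon 7 is included in transfected HEK293 cells. Compound exposure lasted 30-36 h at 37C, with 4.5 mM final sodium butyrate as control, followed by a ONE-Glo read.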
# Potency means the concentration at half of the fitted maximal effect; tags describe the fitted curve by direction and shape.
SMILES,Potency,"activity change, positive = activation"
CCCCn1c(CNC(C)=O)nc2ccccc21,"inconclusive: 14.1 µM [activator, single point]",–
Cc1ccc(Cl)cc1-n1c(=O)c2sc3ccccc3c2n(CC(=O)NC2CCCCC2)c1=O,–,inactive: -3.41%
COC(=O)C1CCCN1C(=O)c1cccs1 (configuration not stated),"inconclusive: 0.126 µM [activator, full curve, poor fit]",–
CCOC(=O)c1cnc2c(C)cc(C)cc2c1NCCc1ccc(OC)c(OC)c1,–,inactive: -5.21%
Cc1csc2nc(CNC(=O)c3ccco3)cn12,active: 20 µM,–
O=C(CC1CCCCC1)Nc1nc2ccccc2s1,active: 11.2 µM,–
CC1CC(=O)NN=C1c1ccc(NCCO)c([N+](=O)[O-])c1 (configuration not stated),"inconclusive: 15.8 µM [activator, single point]",–
O=C1CCCC2=C1C(c1ccc(O)c(Br)c1)C1=C(CCCC1=O)N2c1ccccc1,"inconclusive: 4.47 µM [activator, partial curve, poor fit]",–
O=c1[nH]c2cc(Br)ccc2n2cccc12,–,inactive: 22.8%
O=C(NCc1ccco1)c1cc(-c2cccc(Cl)c2)on1,–,inactive: -6.29%
COc1ccc(/C=C/C(=O)Nc2ccc(-n3nncc3-c3ccc(OC)c(OC)c3)cc2)cc1OC,"inconclusive: 17.8 µM [activator, partial curve]",–
N#Cc1cccc2cnccc12,–,inconclusive: 38.8% [activator]
CCOC(=O)c1[nH]c(C)c(C(=O)N2CCN(c3ccc(F)cc3)CC2)c1C,"inconclusive: 0.251 µM [activator, full curve]",–
O=C(Nc1nc(-c2nc3ccccc3s2)cs1)C1CC1,active: 7.08 µM,–
Cc1nc(NC(=O)c2ccc(F)cc2)sc1C(=O)Nc1ccc2c(c1)CCC2,"inconclusive: 22.4 µM [activator, partial curve, poor fit]",–
C/C(=N\N1C(=O)c2ccccc2NC1c1ccccc1)c1ccccc1O (configuration not stated),active: 2.82 µM,–
C=C[C@](C)(O)CCC=C(C)C,–,inactive: -9.27%
COc1ccc(C(=O)N2CCC3(CCCN(Cc4ccncc4)C3)CC2)cc1,–,inactive: -20%
CCOc1ccccc1C1NC(=O)NC(C)=C1C(=O)OC1CCCC1C (configuration not stated),"inconclusive: 0.0071 µM [activator, partial curve]",–
CC(C)C(=O)Nc1cccc(C(=O)Nc2nnc(C(C)(C)C)s2)c1,–,inactive: -6.43%
CCc1ccc(C(=O)CN2CCSC2=N)cc1,"inconclusive: 2.24 µM [activator, partial curve, poor fit]",–
Nc1nnc(CC(=O)N2CCCCC2)s1,"inconclusive: 0.02 µM [activator, full curve, poor fit]",–
Cc1cc(C(=O)NNC(=S)Nc2ccccc2C)cs1,"inconclusive: 7.08 µM [activator, partial curve, poor fit]",–
O=C(NCCc1ccccc1)c1ccc(OCCOc2ccccc2)cc1,–,inactive: -1.13%
O=C(Cc1ccccc1)N/N=C/c1cc2c(cc1Cl)OCO2,–,inactive: -18.4%
O=C(CN1CCN(S(=O)(=O)c2ccc(Br)cc2)CC1)Nc1ccccc1F,"inconclusive: 6.31 µM [activator, partial curve]",–

SMILES,Potency,"activity change, positive = activation"
CCC(NC(=O)c1ccccc1NC(=O)c1ccc(OC)cc1)C(=O)N1CCCC1 (configuration not stated),"inconclusive: 11.2 µM [activator, single point]",–
O=C1CC(N2CCN(c3ncccn3)CC2)C(=O)N1CCc1ccccc1 (configuration not stated),–,inactive: -7.05%
COc1ccccc1CNC(=O)C1COc2ccccc2O1 (configuration not stated),"inconclusive: 11.2 µM [activator, single point]",–
O=CN(CCN(C=O)CN1CCCCC1)CN1CCCCC1,"inconclusive: 17.8 µM [activator, single point]",–
COc1ccc(-c2coc3c2c(C)cc2oc(=O)c(CC(=O)O)c(C)c23)cc1,–,inactive: 15.6%
O=C(COC(=O)CNC(=O)c1sc2ccccc2c1Cl)Nc1c(Cl)cc(Cl)cc1Cl,–,inactive: 10.4%
COc1ccc2cc(/C(C)=N/NC(=O)C3CC3)ccc2c1,active: 15.8 µM,–
CCOC(=O)c1c(-c2ccc(OCC)cc2)csc1NC(=O)CCN1C(=O)c2ccccc2C1=O,–,inactive: -24.3%
C=CCn1c(SCC(=O)c2[nH]c(C)c(C(=O)OCC)c2C)nc2scc(-c3ccc(OC)cc3)c2c1=O,"inconclusive: 5.62 µM [activator, single point]",–
CC1CCCC(C)N1C(=O)c1cc(-c2cccs2)on1 (configuration not stated),"inconclusive: 11.2 µM [activator, partial curve]",–
COc1cc(C(O)CO)ccc1OS(=O)(=O)O (configuration not stated),"inconclusive: 35.5 µM [activator, single point]",–
Cc1scc(C(=O)NNC(=S)NCC(C)C)c1C,"inconclusive: 3.16 µM [activator, full curve, poor fit]",–
N#CC1=C(N)N2C(=C(C#N)C1c1ccccc1)Sc1ccccc12 (configuration not stated),"inconclusive: 1.41 µM [activator, full curve]",–
CNc1sc(C(=O)c2ccccc2F)c(N)c1-c1nc2ccccc2s1,"inconclusive: 20 µM [activator, single point]",–
S=C(NCCc1ccccc1)NCC1CCCO1 (configuration not stated),"inconclusive: 35.5 µM [activator, single point]",–
Cc1ccccc1-c1nnc(-c2cccs2)o1,active: 20 µM,–
COc1ccc(NC(=S)Nc2ccccc2)cc1,–,inactive: -2.12% [at 9.22 µM]
CCOC(=O)c1cccc(NC(=O)[C@H](CSCc2ccccc2)N2Cc3ccccc3C2=O)c1,–,inactive: 9%
CCOC(=O)c1sc(NC(=O)CNCc2cccnc2)c(C(=O)OCC)c1C,–,inactive: -6.68%
CC(C)C(=O)N1CCc2cc(-c3csc(N)n3)ccc21,active: 12.6 µM,–
COc1ccc2nc(SCC(=O)Nc3ccc4sc(C)nc4c3)c(C#N)cc2c1,–,inactive: -22.2%
Cc1ccc(Nc2nc(N)nc(CSC(=S)N3CCOCC3)n2)c(C)c1,"inconclusive: 11.2 µM [activator, partial curve, poor fit]",–
O=C(NC(=S)NCc1ccccc1)c1ccccc1[N+](=O)[O-],–,inactive: -9.41%
COc1cc(/C=N/NC(=O)Nc2ccccc2)ccc1OC(C)=O,"inconclusive: 22.4 µM [activator, single point]",–
Cc1ccnc(NC(=O)c2ccc(NC(=O)c3ccco3)cc2)c1,active: 10 µM,–
CC(Sc1nncn1C)C(=O)NCc1ccc2c(c1)OCO2 (configuration not stated),"inconclusive: 3.16 µM [activator, single point]",–

SMILES,Potency,"activity change, positive = activation"
CCCC(=O)OCC(=O)Nc1ccc2[nH]c(=O)[nH]c2c1,–,inactive: 9.38%
CN=c1scc(C)n1/N=C/c1cc(Br)c(O)c(OC)c1,"inconclusive: 22.4 µM [activator, single point]",–
CC(C)C(=O)Nc1nc2c(c(=O)[nH]1)CCCC2,–,inactive: -2.33%
COc1ccc2c(C)c(CC(=O)NCCc3ccccc3)c(=O)oc2c1OC,–,inactive: -0.608%
CC1(C)Cc2c(sc(NC(=O)c3ccc4ncsc4c3)c2C(N)=O)C(C)(C)N1,"inconclusive: 12.6 µM [activator, partial curve, poor fit]",–
c1ccc2c(c1)nc(NCCN1CCOCC1)c1nncn12,"inconclusive: 11.2 µM [activator, partial curve]",–
Cc1ccc(C(=O)Nc2nc3ccccc3c(=O)s2)cc1,"inconclusive: 14.1 µM [activator, single point]",–
Cc1ccc(NC2=CC(=O)C(=O)c3ccccc32)cc1,"inconclusive: 5.62 µM [activator, single point]",–
Cc1ccc(/C=C/C(=O)c2c(C)nc3ccccn23)cc1,"inconclusive: 6.31 µM [activator, partial curve, poor fit]",–
CC(C)N1CCc2c(sc(N)c2C#N)C1,"inconclusive: 4.47 µM [activator, single point]",–
COc1ccc(OCC(=O)Nc2ccc(NC(=O)c3ccco3)cc2)cc1,active: 28.2 µM,–
COc1cc(NC(=O)c2nc3cc(C)c(C)cc3n(C)c2=O)cc(OC)c1OC,–,inactive: 6.03%
CCOC(=O)CSc1nnc(C)c(=O)[nH]1,"inconclusive: 0.0891 µM [activator, full curve, poor fit]",–
COc1ccc(C(=O)Nc2cc(C(=O)NCCc3ccccc3)ccc2Cl)cc1,active: 10 µM,–
Cc1ccc(C(=O)Nc2ccc([N+](=O)[O-])cn2)o1,"inconclusive: 8.91 µM [activator, partial curve]",–
COc1ccc(-c2[nH]ncc2/C=N\NC(=O)c2ccc(C(C)(C)C)cc2)cc1OC,"inconclusive: 35.5 µM [activator, single point]",–
CCCCCC(=O)Nc1c(-c2ccc(OC)cc2)c(=O)c2ccccc2n1C,"inconclusive: 0.0158 µM [activator, full curve, poor fit]",–
CC(=O)c1cccc(NC(=O)NC(C)C2CCCO2)c1 (configuration not stated),"inconclusive: 2.51 µM [activator, full curve]",–
COc1cccc(-c2nn(-c3ccccc3)cc2/C=C\C(=O)c2cccs2)c1,–,inactive: -74.3%
Cc1ccc(-c2cc(C(F)F)n3ncc(C(=O)N4CCN5CCCC5C4)c3n2)cc1 (configuration not stated),"inconclusive: 35.5 µM [activator, single point]",–
C=CCn1c(=O)c2c3c(sc2n2c(Nc4ccccc4)nnc12)CCCC3,–,inactive: 1.66%
O=[N+]([O-])c1ccc(-c2cc(-c3ccncc3)nc3ccc4ccccc4c23)cc1,"inconclusive: 0.0112 µM [activator, full curve, poor fit]",–
COc1cccc(/C=C/C(=O)Nc2ccc(OC)nc2)c1,–,inactive: 0.626% [at 1.84 µM]
O=C(O)c1ccc(Cn2nnc3sc4c(c3c2=O)CCCC4)cc1,–,inactive: 5.2%
Cc1ccc(-n2c(=O)c3sccc3n(Cc3cc(=O)n4ccccc4n3)c2=O)cc1,"inconclusive: 0.251 µM [activator, partial curve, poor fit]",–
